In all, about 360,000 compounds went through this assay and about 25,000 (6.9%) were called active. The inconclusive results got no clear call from the source; some entries with a clear call stand among them for comparison. The call rests on the fitted dose curve; in most records, active means well fitted inhibition curve with a large enough effect; inconclusive means small, poorly fitted or top-dose-only effect; inactive means flat fitted curve, though single readings scatter. Potencies of inconclusive entries are doubtful fits and often do not repeat.
Target: Luciferin 4-monooxygenase (Photinus pyralis) (UniProt P08659)
Sequence of UniProt P08659 (P08659 whole entry, looked up): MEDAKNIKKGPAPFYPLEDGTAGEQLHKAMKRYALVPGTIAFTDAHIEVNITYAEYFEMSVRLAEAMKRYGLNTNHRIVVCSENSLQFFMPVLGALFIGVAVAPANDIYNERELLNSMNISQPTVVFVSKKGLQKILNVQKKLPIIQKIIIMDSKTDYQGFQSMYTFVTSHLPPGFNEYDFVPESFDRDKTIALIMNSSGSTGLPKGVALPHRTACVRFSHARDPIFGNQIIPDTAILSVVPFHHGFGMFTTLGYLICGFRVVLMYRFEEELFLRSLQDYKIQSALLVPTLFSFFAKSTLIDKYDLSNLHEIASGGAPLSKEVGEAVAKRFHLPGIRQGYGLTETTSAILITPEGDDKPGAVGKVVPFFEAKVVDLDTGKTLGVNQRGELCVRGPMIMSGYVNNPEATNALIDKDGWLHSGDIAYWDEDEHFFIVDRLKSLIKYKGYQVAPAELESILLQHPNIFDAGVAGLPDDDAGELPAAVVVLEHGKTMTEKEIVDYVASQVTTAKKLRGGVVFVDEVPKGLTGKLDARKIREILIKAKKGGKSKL
Assay: qHTS profiling assay for firefly luciferase inhibitor/activator using purifed enzyme and Km concentrations of substrates (counterscreen for miR-21 project); further: nearly all actives have a fitted effect of over 55% in size;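 on activity change, negative = inhibition: plate controls were vehicle for no effect and reference inhibitor for full effect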
Settings: purified FLuc, luminescence inhibition; series mostly up to 57.5 µM; activity change, negative = inhibition: at the top concentration
Outline: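 Biochemical qHTS of compounds, final roughly 60 µM downward over six points, against 10 nM purified firefly luciferase using Km concentrations of substrates (10 uM D-luciferin, 10 uM ATP) in Tris acetate pH 7.5 buffer; luminescence output.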
Potency means the concentration at half of the fitted maximal effect; tags describe the fitted curve by direction and shape.

Compound	Potency	activity change, negative = inhibition
Cn1c(-c2ccc3c(c2)OCO3)cnc1NCc1ccccc1Cl	active: 12 µM	
COc1ccc(Br)cc1C(=O)NC(=S)Nc1ccc(Cl)c(C(=O)O)c1	inconclusive: 21.3 µM [inhibitor, single point]	
COc1ccccc1-n1cnc2cc(NCc3cccs3)ccc21	inconclusive: 37.9 µM [inhibitor, single point]	
COc1ccc(NC(=O)c2cccc([N+](=O)[O-])c2)cc1	inconclusive: 30.1 µM [inhibitor, partial curve, poor fit]	
Cc1ccc(C)c(NC(=S)NC(NC(=O)N(C)C)C(Cl)(Cl)Cl)c1 (stereo not drawn)		inactive: -0.624%
Cc1cccc(C(=O)Nc2sc3c(c2C#N)CCCCC3)c1	active: 0.953 µM	
COc1ccc(OCCCC(=O)OCC(=O)Nc2nnc(-c3ccccc3)o2)cc1	inconclusive: 26.9 µM [inhibitor, partial curve, poor fit]	
Cc1cccc(NC(=S)/N=C(\N)Nc2nc(C)c3ccccc3n2)c1	inconclusive: 13.5 µM [inhibitor, partial curve]	
O=C(CC1NCCc2ccccc21)Nc1ccccc1 (stereo not drawn)	inconclusive: 37.9 µM [inhibitor, partial curve, poor fit]	
CCOC(=O)c1ccc(OCC2NCCc3cc(OC)c(OC)cc32)cc1 (stereo not drawn)		inactive: 0.966%
CCOC(=O)C1CCN(C2=NC(=O)/C(=C/c3ccc(Cl)cc3)S2)CC1	inconclusive: 37.9 µM [inhibitor, partial curve, poor fit]	
Cc1c(C(=O)Nc2ccc3nc(N4CCOCC4)sc3c2)oc2ccccc12	inconclusive: 12 µM [inhibitor, partial curve]	
CS(=O)(=O)Nc1ccc(C(=O)NCCSCc2ccccc2)cc1		inactive: -2.5%
CCN(CC)C(=O)Cn1c(=O)cc(C)c2c(C)nn(-c3ccc(C)cc3)c21		inactive: -7.16%
CC(C)(C)c1ccc(S(=O)(=O)NNC(=O)c2cc3ccccc3[nH]2)cc1	active: 13.5 µM	
Brc1ccc(C=Nc2ccc3c(c2)OCCOCCOCCO3)s1	active: 10.7 µM	
Cc1cc(NC(=O)c2ccc3c(c2)OCCO3)ccc1NC(=O)c1cc2ccccc2o1	active: 2.69 µM	
COc1ccccc1C(=O)NNC(=O)c1cccc(C)c1	active: 12 µM	
Cc1ccc(CSCCNC(=O)c2ccc(NS(C)(=O)=O)cc2)cc1		inactive: 1.35%
O=C(NCc1ccco1)c1cc2ccccc2o1	inconclusive: 23.9 µM [inhibitor, single point]	
CCC(C)(C)c1ccc(Oc2ccc(NC(=O)COC(=O)C3=COCCO3)cc2)cc1	inconclusive: 37.9 µM [inhibitor, single point]	
CC(=O)c1ccc(NC(=O)C(C)Sc2n[nH]c(-c3cccnc3)n2)cc1 (stereo not drawn)	inconclusive: 26.9 µM [inhibitor, partial curve, poor fit]	
O=C(c1ccc(COc2ccc(Cl)cc2Cl)o1)N1CCCC1	inconclusive: 19 µM [inhibitor, single point]	
Cn1c(=NC(=O)C(C)(C)C)sc2cccc(F)c21	inconclusive: 19 µM [inhibitor, partial curve]	

Compound	Potency	activity change, negative = inhibition
COc1cccc(NC(=O)NCc2cccn2C)c1	inconclusive: 12 µM [inhibitor, partial curve]	
Cn1c(C(=O)NCCc2c[nH]c3ccccc23)cc2sccc21	active: 12 µM	
CCOC(=O)c1cnc2c(-c3ccccc3)c(C)nn2c1N	inconclusive: 2.39 µM [inhibitor, full curve]	
COc1cc(C(=S)N2CCCC2)ccc1OCc1ccccc1	inconclusive: 16.9 µM [inhibitor, partial curve]	
CCN1C(=O)[C@H]2[C@@H](c3ccc(-c4ccc5c(c4)OCO5)cc3)N3CCC[C@@]3(C(=O)OC)[C@H]2C1=O	inconclusive: 23.9 µM [inhibitor, single point]	
Cc1cccc(-n2ncc3c(Nc4ccc(C)c(Cl)c4)ncnc32)c1		inactive: -19.5%
Cc1ccc(C2=NO[C@@](CC(=O)O)(C(=O)Nc3ccc4c(c3)OCCO4)C2)cc1	inconclusive: 37.9 µM [inhibitor, single point]	
COc1ccc(CC(=O)Nc2ccc(F)c(Cl)c2)cc1S(=O)(=O)N1CCOCC1		inactive: 0.0937%
O=C(NN1C(=O)/C(=C/c2cc([N+](=O)[O-])ccc2O)SC1=S)c1ccccc1O	inconclusive: 21.3 µM [inhibitor, partial curve, poor fit]	
CCOc1ccc(-c2cccc(NC(=O)c3ccc(Br)o3)c2)nn1	inconclusive: 19 µM [inhibitor, partial curve]	
O=C(COc1ccc(Cl)cc1)Nc1nnc(C2=COCCO2)o1	inconclusive: 19 µM [inhibitor, partial curve, poor fit]	
COc1ccc(/C=N/NC(=O)c2nc(-c3ccccc3)cc(-c3ccccc3)n2)cc1O	active: 1.51 µM	
C=CCn1c(=O)c(C(=O)Nc2ccccc2OC)c(O)c2ccccc21	inconclusive: 37.9 µM [inhibitor, single point]	
COc1ccc(/C=N/Nc2nc(N)cc(Cl)n2)cc1OC	active: 16.9 µM	
CCn1c(=O)cc(SCC(=O)N2CCN(C)CC2)c2ccccc21		inactive: 1.06%
COC(=O)c1c(C(=O)c2ccc(Br)cc2)n(C)c2ccccc12		inactive: 2.64%
Cc1cc(C)n(-c2ccc(C(=O)NC3=NCCS3)cc2)n1	active: 15.1 µM	
CCN(CC)S(=O)(=O)c1ccc2nc(NC(=O)c3ccco3)sc2c1	active: 19 µM	
O=C(Nc1ccc(Br)cc1)c1cccc(N2C(=O)CCC2=O)c1	inconclusive: 26.9 µM [inhibitor, single point]	
CCN(CCS(=O)(=O)c1ccc(Cl)cc1)C(=O)Nc1ccccc1		inactive: 0.68%
Nc1ccc(C(=O)N/N=C\c2ccc(OC(=O)c3ccccc3Cl)cc2)cc1	inconclusive: 2.39 µM [inhibitor, full curve]	
C/C(=N\Nc1ccccc1[N+](=O)[O-])c1ccc(N2CCOCC2)cc1	active: 3.38 µM	
Nc1ncnc(N)c1N=Nc1ccccc1		inactive: -6.14%
Cc1cc(N2CCN(C3CCCC3)CC2)n2ncc(-c3ccccc3)c2n1	inconclusive: 23.9 µM [inhibitor, single point]	

Reference: PubChem BioAssay AID588342 (National Center for Advancing Translational Sciences (NCATS), 2011)
